Data on 41 compounds can be found in ChEMBL document CHEMBL4888484, “Replenishing the malaria drug discovery pipeline: Screening and hit evaluation of the MMV Hit Generation Library 1 (HGL1) against asexual blood stage Plasmodium falciparum ,using a nano luciferase reporter read-out” (2022).

Screen size: about 150,000 compounds; about 540 (0.36%) showed an effect of 50% or more. The list shows a part of the results.

In this assay the test system is Plasmodium falciparum. Description: Primary screen in NF54 nanoGlo assay, in single point, at 2uM, 72h; a lower Z score goes with more inhibition. In kind it is functional, Erythrocyte. To be noted: timepoint 72 hour.
Turning to `Cc1nnc(CN2C[C@H](C)Oc3ccc(Br)cc32)o1`, the “% Inhibition” value is reported as -3% and the Z score amounted to 0.54.

`Cn1cc(CNC(=O)C[C@@H]2C[C@H]3O[C@H](CNC(=O)NCc4ccccc4)[C@@H](O)[C@H]3O2)cn1`: the “% Inhibition” value is -3% and the Z score was 0.41.

`Cc1ccccc1N1CCN(C(=O)CC[C@]2(Cc3ccc(-c4ccccc4)cc3)CCC(=O)N2)CC1`: the “% Inhibition” value is -6% and the Z score is given as 1.14.

On to `CCc1nc(C)c(C(=O)Nc2cc(C(F)(F)F)c[nH]c2=O)s1`, for which the “% Inhibition” value is -5% and the Z score is given as 0.75.

On to `Cc1ccc(-c2nc(C(=O)N3CC4CC5CC4C3C5O)cs2)n1C` (configuration not stated), for which the “% Inhibition” value is listed as -8% and the Z score was found to be 0.95.

For `CCC(c1cccs1)N1C(=O)[C@H]2CN(S(=O)(=O)c3cc(C)ccc3C)C[C@H]2C1=O` (some centres not stated), the “% Inhibition” value is recorded as 0% and the Z score amounted to 0.01.

With `OCCc1cc(CC2(NCc3ccco3)COC2)no1`, the “% Inhibition” value is -3% and the Z score is reported as 0.39.

For the compound `CC1CC(NC(=O)c2nc(=O)[nH][nH]2)CN1c1ccccc1` (configuration not stated), the “% Inhibition” value was -9% and the Z score was 0.93.

In the case of `CN(C(=O)C[C@]1(c2ccccc2)CC(=O)N(CCc2ccccn2)C1=O)C(C1CC1)C1CC1`, the “% Inhibition” value was -5% and the Z score was 0.72.

As to `Cn1cc(C2C(C(=O)NC3CCCc4occc43)CC(=O)N2C(C)(C)C)cn1` (configuration not stated), the “% Inhibition” value was determined as 3% and the Z score is on record as -0.24.

As for `O=C(CNC(=O)c1ccsc1)NCC1(C2CC2)CCC1`, the “% Inhibition” value is listed as -9% and the Z score is on record as 0.77.

`CC(C)c1cc(C(=O)N2CCC(N3CCOC3=O)CC2)nc2ncnn12`: the “% Inhibition” value is on record as -12% and the Z score stood at 2.36.

As for `COC[C@@H](C)n1nnnc1N1C2CCC1CC(CC(F)(F)F)C2` (some centres not stated), the “% Inhibition” value is reported as -10% and the Z score is 1.27.

`Cc1cc(C)n(-c2ccc([C@H](C)NC(=O)c3c[nH]nn3)cc2)n1`: the “% Inhibition” value is -8% and the Z score is recorded as 1.31.

As to `CC1(F)CC(NC(=O)c2cscn2)C1` (configuration not stated), the “% Inhibition” value is given as -2% and the Z score turned out to be 0.23.

Take `Cc1cc(-c2nc(CN3CCOCC3)no2)c2cccc(C)c2n1`: the “% Inhibition” value is -5% and the Z score is 0.62.

For `COc1cccc2c1NC(=O)C[C@H]2C(=O)N1CCC(CN2CCCC2=O)CC1`, the “% Inhibition” value came to 11% and the Z score is -1.45.

On to `CC1(C)CCC(O)(CN[C@H](c2ccccc2)c2nnc[nH]2)CC1`, for which the “% Inhibition” value is reported as -19% and the Z score turned out to be 2.08.

Take `CNc1ccc(-c2cc(C(F)(F)F)nn2C)cn1`: the “% Inhibition” value was -5% and the Z score is on record as 0.93.

`O=C(NC1(C(=O)O)CCCC1)c1cc(-c2ccccc2)ccc1Cl`: the “% Inhibition” value is 1% and the Z score is reported as -0.21.

Turning to `Cc1cccc(-n2nc(C3CCOCC3)nc2-c2ccc3c(c2)OCO3)n1`, the “% Inhibition” value is -11% and the Z score is given as 1.87.

Regarding `O=c1c(CN2CCN(c3ccc(F)cc3)CC2)cc2ccc(F)cc2n1C[C@H]1CCCO1`, the “% Inhibition” value is given as -4% and the Z score is 0.46.

As for `COc1ccc(OC)c(S(=O)(=O)N2CCC[C@@](F)(C(=O)N3CCCC3)C2)c1`, the “% Inhibition” value is reported as -7% and the Z score is given as 0.58.

Take `C[C@@]1(C(=O)NC2CCCCCC2)Cn2nc(C3CC3)cc2C(=O)N1Cc1ccccc1F`: the “% Inhibition” value was -3% and the Z score was found to be 0.55.

In the case of `CCOc1ccc(C)cc1S(=O)(=O)N(CCO)CCO`, the “% Inhibition” value was -7% and the Z score is given as 1.07.

`Cc1cnn(CCn2cnc(C#N)n2)c1`: the “% Inhibition” value came to 7% and the Z score is reported as -1.05.

Turning to `COc1cc2c(cc1CN1CCC(c3ncncc3C)CC1)OCCCO2`, the “% Inhibition” value is recorded as 2% and the Z score is on record as -0.35.

In the case of `Cc1nc[nH]c1-c1cc(-c2cc(CN3CCOCC3)cs2)nc(N)c1C#N`, the “% Inhibition” value is reported as -2% and the Z score came out at 0.33.

Take `COCCNC(=O)CN(C)C1CCCCC1`: the “% Inhibition” value is -11% and the Z score is on record as 1.27.

For `Cc1ccc(C)c(-n2nc(C)c(CN3CCCC[C@H](S(C)(=O)=O)C3)c2Cl)c1`, the “% Inhibition” value is reported as -10% and the Z score is 1.2.

Consider `CCCOc1ccccc1-c1cn(Cc2ccon2)nn1`, for which the “% Inhibition” value is -12% and the Z score amounted to 1.65.

As for `COc1ccc(CCNC(=O)C2C3C(=O)N(c4ccccc4)C[C@]34C=C[C@H]2O4)cc1` (some centres not stated), the “% Inhibition” value is -13% and the Z score worked out at 2.

In the case of `Cc1noc(NC(=O)N2CCC=C(F)C2)n1`, the “% Inhibition” value is 0% and the Z score was determined as 0.02.

With `O=C(CC[C@@H]1NC(=O)N(Cc2ccc3c(c2)OCO3)C1=O)N1CCOCC1`, the “% Inhibition” value is given as -15% and the Z score was found to be 2.13.

On to `CCCNC(=O)Cn1ccc(=O)[nH]c1=O`, for which the “% Inhibition” value is -21% and the Z score was determined as 1.94.

Consider `NS(=O)(=O)c1cnc(NCCNc2cccc3ccccc23)s1`, for which the “% Inhibition” value is given as 0% and the Z score is given as 0.01.

With `CC(C)(C)c1ccn(C2(C(=O)O)CCN(C(=O)c3cncc(Cl)c3)CC2)n1`, the “% Inhibition” value was determined as 13% and the Z score is -1.74.

Take `CN(C)c1ccnc(CNC(=O)N[C@H]2CC23CCOCC3)c1`: the “% Inhibition” value was -2% and the Z score came out at 0.43.

With `CN(C(=O)c1cccc(-c2ccoc2)c1)C1CCCC1S(C)(=O)=O` (configuration not stated), the “% Inhibition” value came out at 2% and the Z score was -0.24.

For the compound `CCN(C)C(=O)c1ccc(N2C[C@@H]3[C@H]4CC[C@H](CC4)[C@@H]3C2)nc1`, the “% Inhibition” value is given as 10% and the Z score is -1.22.

As for `COc1ccccc1CN1CC[C@H](c2nnc(Cc3ccccc3)o2)C1`, the “% Inhibition” value was -11% and the Z score turned out to be 1.42.

In general, % Inhibition refers to the relative decrease from the control value, in per cent.
